The text below walks through data of article PMC4336329 (PLoS ONE, 2015).

In all, about 310,000 compounds went through this assay and about 14,000 (4.5%) showed an effect of 50% or more. Effects have a minus sign here. This is one part of the list. *1 amine or outer side, *2 acyl side, *3 side chain or, on linkers, in order; H or OH if unused. Where a SMILES comes first, the peptide text is derived from it. Bridges are numbered along the chain shown (N, C = ends). [ ]: non-standard residue; d: D form. ξ: configuration not given here. hSer(Ph(2-I,4-NO2,6-CO)) = O=C([C@H](CCOc1c(I)cc([N+](=O)[O-])cc1C(=O)[*:3])N[*:1])[*:2]; ξD = NC(CC(=O)O)C(=O)O
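Also: peak tail current of the secondary pulse compared with the same well before compound.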

In the assay the target is human ether-à-go-go-related gene (hERG) potassium channel (human, UniProt Q12809). Briefly: primary screen, population patch clamp on CHO cells stably expressing hERG.
human ether-à-go-go-related gene (hERG) potassium channel, sequence (Q12809 whole entry, looked up): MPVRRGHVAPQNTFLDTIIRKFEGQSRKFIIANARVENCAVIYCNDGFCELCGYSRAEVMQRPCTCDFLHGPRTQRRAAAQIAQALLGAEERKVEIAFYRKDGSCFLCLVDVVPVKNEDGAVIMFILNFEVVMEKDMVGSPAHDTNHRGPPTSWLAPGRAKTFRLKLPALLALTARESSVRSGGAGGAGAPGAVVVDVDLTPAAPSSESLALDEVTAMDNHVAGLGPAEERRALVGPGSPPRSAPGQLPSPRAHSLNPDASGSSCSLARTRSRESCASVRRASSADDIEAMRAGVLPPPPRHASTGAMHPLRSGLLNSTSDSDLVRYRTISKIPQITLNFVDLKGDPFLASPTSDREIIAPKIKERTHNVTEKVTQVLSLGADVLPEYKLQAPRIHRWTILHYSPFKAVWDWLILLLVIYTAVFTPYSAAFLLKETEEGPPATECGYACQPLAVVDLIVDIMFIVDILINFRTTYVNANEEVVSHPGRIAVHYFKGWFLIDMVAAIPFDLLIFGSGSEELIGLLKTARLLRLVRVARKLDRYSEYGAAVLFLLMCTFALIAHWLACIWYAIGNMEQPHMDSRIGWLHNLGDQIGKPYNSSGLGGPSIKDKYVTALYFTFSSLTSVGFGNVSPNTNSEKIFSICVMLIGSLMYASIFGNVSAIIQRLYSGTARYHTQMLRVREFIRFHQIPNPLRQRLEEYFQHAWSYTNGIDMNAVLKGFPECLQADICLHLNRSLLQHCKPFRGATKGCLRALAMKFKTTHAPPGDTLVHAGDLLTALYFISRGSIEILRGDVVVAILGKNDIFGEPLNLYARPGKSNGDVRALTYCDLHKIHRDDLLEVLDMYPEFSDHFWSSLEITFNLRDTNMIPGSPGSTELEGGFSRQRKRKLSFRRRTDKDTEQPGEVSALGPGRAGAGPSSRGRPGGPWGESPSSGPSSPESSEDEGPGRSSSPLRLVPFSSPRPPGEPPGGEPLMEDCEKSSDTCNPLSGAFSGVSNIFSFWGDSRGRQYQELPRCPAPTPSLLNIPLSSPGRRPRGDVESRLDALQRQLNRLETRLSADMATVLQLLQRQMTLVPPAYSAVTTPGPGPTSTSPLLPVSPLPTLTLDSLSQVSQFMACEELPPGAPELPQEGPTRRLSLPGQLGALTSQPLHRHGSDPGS
Turning to `CCC(C)NC(=O)c1c(N)n(CCCOC)c2nc3ccccc3nc12` (centres unmarked), the “hERG current change (%, negative = inhibition) at 10uM” value was -23.4%.
Regarding `CCOC(=O)c1nnn(-c2nonc2N)c1-c1ccc(Cl)cc1`, the “hERG current change (%, negative = inhibition) at 10uM” value is listed as -1.79%.
To `CC1CCCCC1NC(=O)CSc1nnc(CN2CCOCC2)n1C` (centres unmarked) belongs -4.63%.
To `Cc1ccc2nc3c(cc2c1)c(NC(=O)c1ccco1)nn3CC(C)C` belongs 14.2%; to `COC(=O)Cc1ccc(NC(=O)C(c2ccccc2)c2ccccc2)cc1`, -2.7%.
Turning to `COC(=O)N1C(=O)[C@](c2ccccc2)(C2CCCC2)N1C(=O)OC`, the “hERG current change (%, negative = inhibition) at 10uM” value is given as 17.2%.
As to `CN(Cc1cnn(C)c1)C(=O)CC1C(=O)NCCN1Cc1cccc(Oc2ccccc2)c1` (centres unmarked), the “hERG current change (%, negative = inhibition) at 10uM” value is on record as 14.3%.
To `Cc1nnn(C23C[C@@H]4C[C@@H](CC(C(=O)N5CCN(c6ccccc6)CC5)(C4)C2)C3)n1` belongs -10.2%.
To `Cc1ccc2nsnc2c1NC(=O)c1cncc(Br)c1` belongs 16.4%; to `CCN(CC)S(=O)(=O)c1ccc(-c2nnc(SCC(=O)Nc3nc(C)cs3)o2)cc1`, -6.47%; to `CC(C)(c1ccccc1)c1ccc(OCCCN2CCNCC2)cc1.O=C(O)C(=O)O`, 3.19%.
As to `Cc1nc(SC(C)C(=O)c2c(N)n(C)c(=O)n(C)c2=O)c2c(C)c(C)sc2n1` (centres unmarked), the “hERG current change (%, negative = inhibition) at 10uM” value is on record as -10.8%.
Under `C/C(=N\NC(=O)c1nnn(-c2nonc2N)c1CN(C)c1ccccc1)c1cccs1` stands 9.23%; under `Cc1ccc(C(=O)NNC(=O)C2CCN(c3ncccn3)CC2)cc1`, 3.14%; under `Cc1ccc(S(=O)(=O)NCC(=O)N(CC2CCCO2)C(C(=O)NC2CCCCC2)C(C)C)cc1` (centres unmarked), -52.7%.
Turning to `C[C@@H]1NC(=O)[C@H](CCCN=C(N)N)NC(=O)c2cc([N+](=O)[O-])cc(I)c2OCC[C@@H](C(=O)NC(CC(=O)O)C(N)=O)NC1=O` (some centres unmarked) (RA[hSer(Ph(2-I,4-NO2,6-CO))][ξD]-NH2; lactam N-3), the “hERG current change (%, negative = inhibition) at 10uM” value is 21.9%.
To `COc1ccc(Br)cc1/C=N/N1CCN(Cc2ccccc2Cl)CC1` belongs 24.7%; to `CC1CCN(C(=O)c2cccc(S(=O)(=O)N3CCCCC3)c2)CC1`, -9.57%; to `Cc1ccc(N2C(=O)C3C(c4ccccc4)(C2=O)C3(c2ccccc2)c2ccccc2)cc1` (centres unmarked), 28.3%.
Consider `Cc1nn(-c2ccccc2)c(C)c1/C=N/NC(=O)c1cnccn1`, for which the “hERG current change (%, negative = inhibition) at 10uM” value was -5.73%.
In the case of `Cc1c(Cl)cccc1NC(=S)NC1CCN(Cc2ccccc2)CC1`, the “hERG current change (%, negative = inhibition) at 10uM” value is -24.2%.
On to `O=C(NNC(=S)Nc1ccccc1)c1cccc(S(=O)(=O)N2CCOCC2)c1`, for which the “hERG current change (%, negative = inhibition) at 10uM” value is recorded as 15.3%.
To `CCOC(=O)c1c(S(=O)(=O)N2CCC(C)CC2)c(C)n(C)c1C` belongs -21.8%; to `Cc1cc(F)ccc1NC(=O)CCc1ccc(S(=O)(=O)N2CCOCC2)cc1`, -29.5%.
To `Cc1ccc(CN2C3=NCCN3c3ccccc32)cc1.Cl` belongs -68.3%; to `O=C(CNC(=O)c1cccs1)NCC(=O)OCC(=O)c1ccccc1`, 15.5%; to `CC(C(=O)NC(=O)NCc1ccccc1)N1C(=O)c2ccccc2C1=O` (centres unmarked), -3.41%.
On to `Cc1ccc(C2CCN(C(=O)Nc3ccc(F)cc3)C2)cc1` (centres unmarked), for which the “hERG current change (%, negative = inhibition) at 10uM” value turned out to be 0.174%.
Under `COc1ccc(O)c(C(=O)CC(=O)c2ccccc2)c1` stands 8%; under `O=C1c2ccccc2C(=O)N1CCN1CCc2ccccc21`, -3.28%.
As to `CC1(C)CC(=O)C=C(c2ccc(I)cc2)C1`, the “hERG current change (%, negative = inhibition) at 10uM” value is given as -2.72%.
For the compound `Fc1cccc(-c2n[nH]c(=S)n2-c2ccccc2)c1`, the “hERG current change (%, negative = inhibition) at 10uM” value worked out at 23%.
Turning to `CCc1sc(NC(C)=O)nc1-c1ccccc1`, the “hERG current change (%, negative = inhibition) at 10uM” value is given as -1.16%.
Regarding `CCCCn1c(N)c(N(CCOC)C(=O)c2oc3ccc(OCC)cc3c2C)c(=O)[nH]c1=O`, the “hERG current change (%, negative = inhibition) at 10uM” value is given as -22.6%.
Regarding `COc1cc(NC(=S)N2CCN(C(c3ccccc3)c3ccccc3)CC2)cc(OC)c1`, the “hERG current change (%, negative = inhibition) at 10uM” value was determined as 5.1%.
`COCC1CCN(C(=O)CC2C(=O)NCCN2Cc2cccc(Oc3ccccc3)c2)CC1` (centres unmarked): the “hERG current change (%, negative = inhibition) at 10uM” value was 5.98%.
Consider `N#Cc1ccc(C(=O)Nc2cccc3ccccc23)c(F)c1`, for which the “hERG current change (%, negative = inhibition) at 10uM” value is given as 10.3%.
Regarding `CCN(CC)CC(=O)NN(Cc1ccccc1)c1ccccc1.O=C(O)C(=O)O`, the “hERG current change (%, negative = inhibition) at 10uM” value is listed as -73.6%.
On to `O=C(O)C(=O)O.O=C(c1ccccc1)c1ccc(OCC(O)CNCc2ccc(F)cc2)cc1` (centres unmarked), for which the “hERG current change (%, negative = inhibition) at 10uM” value is -68.2%.
In the case of `COc1ccc(N2CC(C(=O)OCC(=O)c3ccccc3)CC2=O)cc1` (centres unmarked), the “hERG current change (%, negative = inhibition) at 10uM” value is given as -9.34%.
Consider `COc1ccccc1N1CCN(C2CCCN(C(=O)c3cc(C)oc3C)C2)CC1` (centres unmarked), for which the “hERG current change (%, negative = inhibition) at 10uM” value is recorded as -3.28%.
To `COc1cc2c(cc1OC)-c1nnc(-c3ccco3)n1C1(CCCC1)C2` belongs -8.01%.
To `O=c1[nH]c2c(=O)[nH]cnc2nc1-c1ccccc1` belongs 8.55%; to `COCCNC(=O)CSc1n[nH]c(=O)n1CCc1ccccc1`, 19%; to `CC(C(=O)Nc1cccc(C#N)c1)N(C)CCOc1ccccc1` (centres unmarked), -14.9%.
Turning to `Cc1ccc(C)c(NC(=O)CN2C(=O)CNC2=O)c1`, the “hERG current change (%, negative = inhibition) at 10uM” value stood at 0.955%.
As to `O=C(CN(CC1CCCO1)C(=O)CNS(=O)(=O)c1ccc(F)cc1)NCc1ccc(F)cc1` (centres unmarked), the “hERG current change (%, negative = inhibition) at 10uM” value is -2.38%.
Consider `CCCCCCCC(=O)NNC(=O)CC(=O)Nc1ccccc1C(=O)O`, for which the “hERG current change (%, negative = inhibition) at 10uM” value is on record as -4.89%.
With `O=[N+]([O-])c1ccc(NCc2ccc(Cl)cc2)c2ccncc12`, the “hERG current change (%, negative = inhibition) at 10uM” value was found to be 18.5%.
Consider `CC1=C(C(=O)Nc2ccccc2)C2(CCCCC2)C(C(N)=O)C(=S)N1` (centres unmarked), for which the “hERG current change (%, negative = inhibition) at 10uM” value was -6.36%.
Under `COc1ccc(OC)c(/C=N/NC(=O)CCc2n[nH]c(=O)[nH]c2=O)c1` stands 4.8%.
To `CSc1ccc(S(=O)(=O)N2CCC(C(=O)NCc3cccnc3)CC2)cc1` belongs -28.4%; to `Cc1cc(-c2ccccc2)n2nc(C)c(-c3ccccc3)c2n1`, 8.7%.
Take `COC(CNC(=O)c1ccc(-n2c(=S)[nH]c3ccccc3c2=O)cc1)OC`: the “hERG current change (%, negative = inhibition) at 10uM” value is -1.61%.
Consider `COc1ccc(C2=NS(=O)(=O)N(C)C(C(=O)N(C)Cc3ccccc3)=C2)cc1`, for which the “hERG current change (%, negative = inhibition) at 10uM” value was -69.9%.
With `COc1ccc(S(=O)(=O)NCCSCc2ccccc2C)cc1Br`, the “hERG current change (%, negative = inhibition) at 10uM” value is listed as -1.29%.
For `CCOC(=O)c1cccc(NC(=O)/C(=C\c2ccccc2)NC(=O)c2ccccc2Cl)c1`, the “hERG current change (%, negative = inhibition) at 10uM” value was 3.62%.
To `O=C(c1ccc(F)cc1)c1cc2ccc(O)cc2oc1=O` belongs 3.93%; to `CCN1C(=O)[C@@H]2C(C(=O)c3cnccn3)=NN[C@@H]2C1=O`, 16.5%; to `N/C(COc1cccc(Cl)c1)=N\NS(=O)(=O)c1ccccc1`, 8.21%.
Under `CCOC(=O)NC(=S)Nc1ccc(OC)cc1` stands 11.3%; under `CC(C)c1ccc(OCc2nnc(SCC(=O)N3CCCCC3)o2)cc1`, -15.3%; under `COCC(C)n1c(SCC(=O)Nc2oc(C)c3c(C)n[nH]c(=O)c23)nc2ccccc2c1=O` (centres unmarked), 6.9%.
Under `CCn1cc(/C=C(\NC(=O)c2ccc(OC)c(OC)c2)C(=O)NCCCO)c2ccccc21` stands 18.2%; under `Cc1cc(C)cc(NC(=O)C(Sc2nnc(C)c(=O)[nH]2)c2ccccc2)c1` (centres unmarked), 12%; under `Cc1onc(-c2c(F)cccc2Cl)c1C(=O)NCc1ccccn1`, 1.98%.
In the case of `CCOC(=O)C1=C(CSc2nc3c(cc2C#N)CN(C)CC3)OC(N)=C(C#N)C1c1ccncc1` (centres unmarked), the “hERG current change (%, negative = inhibition) at 10uM” value is recorded as 3.37%.
Under `COc1ccccc1CNC(=O)c1ccccc1OC` stands -5.88%; under `COc1ccc(OC)c(/C=C/C(=O)N2CCN(S(=O)(=O)c3cc(C)ccc3C)CC2)c1`, -14.1%; under `CCN(c1ccccc1)S(=O)(=O)c1ccc2[nH]cc(C(=O)N3CCOCC3)c(=O)c2c1`, 13.5%.
As to `O=C(CSc1nc2c(sc3ccccc32)c(=O)n1CCO)NCc1ccco1`, the “hERG current change (%, negative = inhibition) at 10uM” value was -18.2%.
In the case of `O=C(CS(=O)CC(=O)N(CC(=O)NC1CCCC1)C1CCCCC1)Nc1ccc(F)cc1` (centres unmarked), the “hERG current change (%, negative = inhibition) at 10uM” value is -26.8%.
Take `O=C(Nc1cccc(NC(=O)c2cccs2)c1)c1ccc2c(c1)OCCO2`: the “hERG current change (%, negative = inhibition) at 10uM” value is given as 4.94%.
`O=C(Nc1ccc(C(=O)N2CCCCC2)cc1)c1cccc([N+](=O)[O-])c1`: the “hERG current change (%, negative = inhibition) at 10uM” value was -16.4%.
As to `COc1ccc(/C=C/C(=O)NCCN2CCOCC2)cc1OC`, the “hERG current change (%, negative = inhibition) at 10uM” value was 26.6%.
Regarding `O=S(=O)(c1ccc(F)c(F)c1F)N1CCN(C(=S)NC2CC3CCC2C3)CC1` (centres unmarked), the “hERG current change (%, negative = inhibition) at 10uM” value was 19.6%.
Take `Cc1cc(C)c2nc(SCC(=O)Nc3cc(C)on3)c(C#N)cc2c1`: the “hERG current change (%, negative = inhibition) at 10uM” value was found to be 6.66%.
Regarding `CCN(CC(=O)NCc1ccc(Cl)cc1)S(=O)(=O)c1ccc(F)cc1`, the “hERG current change (%, negative = inhibition) at 10uM” value was -19.1%.
For the compound `CN1CCN(c2cc(=O)n(C3CCCCC3)c(=O)[nH]2)CC1`, the “hERG current change (%, negative = inhibition) at 10uM” value is -3.72%.
To `Cc1ccccc1OCC(=O)Nc1ccc(N2CCN(C)CC2)c(Cl)c1` belongs -68.8%; to `COc1ccc(C(=O)Nc2ccc3c(c2)C(=O)N(C)C3=O)cc1OC`, 12.7%; to `CCOC(=O)CSc1nc(C)c(C(=O)OCC)s1`, 4.86%.
Turning to `CCCC(=O)NC(Nc1cccc(C(F)(F)F)c1)C(Cl)(Cl)Cl` (centres unmarked), the “hERG current change (%, negative = inhibition) at 10uM” value is on record as -12.8%.
In the case of `Cc1cc(=O)cc(C)n1-c1ccccc1N`, the “hERG current change (%, negative = inhibition) at 10uM” value came to 18.5%.
For `COc1ccc(OCC(=O)Nc2c3c(nn2C(C)(C)C)CSC3)cc1`, the “hERG current change (%, negative = inhibition) at 10uM” value was -2.15%.
Regarding `O=C(COC(=O)C1CC(=O)N(c2ccc3c(c2)OCCO3)C1)NC1CCCc2ccccc21` (centres unmarked), the “hERG current change (%, negative = inhibition) at 10uM” value is reported as -9.6%.
